Source: article PMC5062570 (Nature Communications, 2016)

What was measured:
[1] = biological target: PF-7802-labelled proteins in ARPE-19 cells (Homo sapiens, UniProt P05556)
[2] = biological target: PF-7802-labelled proteins in ARPE-19 cells (Homo sapiens, UniProt P07355)
[3] = biological target: PF-7802-labelled proteins in ARPE-19 cells (Homo sapiens, UniProt P07437)
[4] = biological target: PF-7802-labelled proteins in ARPE-19 cells (Homo sapiens, UniProt P09651)
[5] = biological target: PF-7802-labelled proteins in ARPE-19 cells (Homo sapiens, UniProt P32322); conditions: protein PYCR1 Pyrroline-5-carboxylate reductase 1, mitochondrial, P32322
Chain of UniProt P32322 (P32322 whole entry): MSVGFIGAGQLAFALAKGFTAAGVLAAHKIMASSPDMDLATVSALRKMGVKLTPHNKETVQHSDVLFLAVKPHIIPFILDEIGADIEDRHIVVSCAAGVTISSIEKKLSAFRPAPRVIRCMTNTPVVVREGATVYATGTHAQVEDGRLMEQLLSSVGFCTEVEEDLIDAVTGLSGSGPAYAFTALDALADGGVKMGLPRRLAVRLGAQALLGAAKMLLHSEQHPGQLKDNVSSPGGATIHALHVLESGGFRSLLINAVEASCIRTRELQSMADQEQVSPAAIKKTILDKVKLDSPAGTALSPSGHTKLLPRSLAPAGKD

[6] = biological target: PF-7802-labelled proteins in ARPE-19 cells (Homo sapiens, UniProt P61916); conditions: protein NPC2 Epididymal secretory protein E1 (P61916); replicates in separate columns
[7] = biological target: PF-7802-labelled proteins in ARPE-19 cells (Homo sapiens, UniProt P62937); conditions: protein PPIA Peptidyl-prolyl cis-trans isomerase A, P62937
Chain of UniProt P62937 (P62937 whole entry): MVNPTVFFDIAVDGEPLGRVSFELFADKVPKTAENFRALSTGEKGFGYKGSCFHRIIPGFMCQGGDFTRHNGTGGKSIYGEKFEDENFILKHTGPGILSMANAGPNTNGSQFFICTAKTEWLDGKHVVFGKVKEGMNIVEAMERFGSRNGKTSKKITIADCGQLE

[8] = biological target: PF-7802-labelled proteins in ARPE-19 cells (Homo sapiens, UniProt Q01081); conditions: U2AF1 Splicing factor U2AF 35 kDa subunit (Q01081)
Chain of UniProt Q01081 (Q01081 whole entry): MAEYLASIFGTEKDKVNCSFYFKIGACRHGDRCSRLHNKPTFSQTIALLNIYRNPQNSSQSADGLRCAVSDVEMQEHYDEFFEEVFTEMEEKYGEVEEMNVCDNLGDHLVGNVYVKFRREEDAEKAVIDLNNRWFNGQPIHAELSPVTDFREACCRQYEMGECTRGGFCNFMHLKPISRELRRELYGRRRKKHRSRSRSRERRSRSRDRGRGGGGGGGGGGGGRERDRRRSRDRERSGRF

[9] = biological target: PF-7802-labelled proteins in ARPE-19 cells (Homo sapiens, UniProt Q06830); conditions: protein PRDX1 Peroxiredoxin-1, Q06830
Chain of UniProt Q06830 (Q06830 whole entry): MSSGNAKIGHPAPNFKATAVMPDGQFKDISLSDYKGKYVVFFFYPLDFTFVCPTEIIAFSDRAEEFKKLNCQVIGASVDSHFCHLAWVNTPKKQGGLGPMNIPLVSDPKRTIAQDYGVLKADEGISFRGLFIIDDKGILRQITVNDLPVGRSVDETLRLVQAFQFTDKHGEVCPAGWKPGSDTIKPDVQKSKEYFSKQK

[10] = biological target: PF-7802-labelled proteins in ARPE-19 cells (Homo sapiens, UniProt Q5QNW6)
[11] = biological target: PF-7802-labelled proteins in ARPE-19 cells (Homo sapiens, UniProt Q6P2Q9); conditions: protein PRPF8 Pre-mRNA-processing-splicing factor 8, Q6P2Q9
[12] = biological target: PF-7802-labelled proteins in ARPE-19 cells (Homo sapiens, UniProt Q99623); conditions: protein PHB2 Prohibitin-2 (Q99623); replicates in separate columns
Chain of UniProt Q99623 (Q99623 whole entry): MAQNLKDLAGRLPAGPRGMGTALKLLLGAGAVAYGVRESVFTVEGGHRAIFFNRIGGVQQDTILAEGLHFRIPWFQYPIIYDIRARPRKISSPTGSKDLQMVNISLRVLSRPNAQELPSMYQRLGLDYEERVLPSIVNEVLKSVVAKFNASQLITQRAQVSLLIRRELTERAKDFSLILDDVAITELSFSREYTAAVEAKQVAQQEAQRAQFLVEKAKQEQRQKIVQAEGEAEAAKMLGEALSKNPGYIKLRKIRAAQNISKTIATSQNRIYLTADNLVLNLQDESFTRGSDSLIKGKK

[13] = biological target: PF-7802-labelled proteins in ARPE-19 cells (Homo sapiens, UniProt Q9UHD8)
Chain of UniProt Q9UHD8 (Q9UHD8 whole entry): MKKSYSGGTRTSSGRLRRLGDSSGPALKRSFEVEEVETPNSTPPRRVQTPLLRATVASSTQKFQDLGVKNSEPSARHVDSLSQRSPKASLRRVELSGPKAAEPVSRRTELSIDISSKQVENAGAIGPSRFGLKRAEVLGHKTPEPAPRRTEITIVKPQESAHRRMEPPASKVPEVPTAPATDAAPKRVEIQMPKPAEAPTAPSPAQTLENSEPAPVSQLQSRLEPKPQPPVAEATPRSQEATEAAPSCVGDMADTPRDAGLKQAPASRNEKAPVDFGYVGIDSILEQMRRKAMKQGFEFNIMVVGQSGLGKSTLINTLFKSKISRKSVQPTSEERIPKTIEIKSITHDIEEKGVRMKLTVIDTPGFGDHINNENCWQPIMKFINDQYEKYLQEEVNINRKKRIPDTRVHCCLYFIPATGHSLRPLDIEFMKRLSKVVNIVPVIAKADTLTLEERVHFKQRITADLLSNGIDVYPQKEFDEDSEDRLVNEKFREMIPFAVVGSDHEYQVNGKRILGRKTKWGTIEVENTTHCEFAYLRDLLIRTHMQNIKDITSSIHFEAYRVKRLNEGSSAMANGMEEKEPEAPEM

[14] = test system: PF-7802-labelled proteins in ARPE-19 cells
[15] = biological target: PF-7802-labelled proteins in ARPE-19 cells (Homo sapiens, UniProt O15260); conditions: SURF4 Surfeit locus protein 4 (O15260)
Chain of UniProt O15260 (O15260 whole entry): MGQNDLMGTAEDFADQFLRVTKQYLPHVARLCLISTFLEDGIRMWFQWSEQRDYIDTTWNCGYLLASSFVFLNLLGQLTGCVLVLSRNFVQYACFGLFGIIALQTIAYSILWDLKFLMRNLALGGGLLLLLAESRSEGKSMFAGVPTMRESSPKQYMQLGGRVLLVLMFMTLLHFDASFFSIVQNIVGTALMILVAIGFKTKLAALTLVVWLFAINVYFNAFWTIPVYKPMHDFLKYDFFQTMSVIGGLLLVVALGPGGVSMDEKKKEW

[16] = biological target: PF-7802-labelled proteins in ARPE-19 cells (Homo sapiens, UniProt P07737); conditions: protein PFN1 Profilin-1 (P07737); replicates in separate columns
Chain of UniProt P07737 (P07737 whole entry): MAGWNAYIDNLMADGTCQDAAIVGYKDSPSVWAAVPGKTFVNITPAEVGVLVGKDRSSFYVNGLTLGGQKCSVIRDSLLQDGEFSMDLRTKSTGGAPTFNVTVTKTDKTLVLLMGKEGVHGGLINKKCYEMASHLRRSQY

[17] = biological target: PF-7802-labelled proteins in ARPE-19 cells (Homo sapiens, UniProt P09936); conditions: UCHL1 Ubiquitin carboxyl-terminal hydrolase isozyme L1 (P09936)
Chain of UniProt P09936 (P09936 whole entry): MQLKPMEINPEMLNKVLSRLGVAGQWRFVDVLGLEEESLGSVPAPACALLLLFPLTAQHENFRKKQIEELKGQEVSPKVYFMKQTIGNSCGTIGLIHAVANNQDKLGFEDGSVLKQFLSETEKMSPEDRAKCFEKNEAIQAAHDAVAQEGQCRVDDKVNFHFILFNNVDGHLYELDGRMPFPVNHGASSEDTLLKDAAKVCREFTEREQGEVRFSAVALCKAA

[18] = biological target: PF-7802-labelled proteins in ARPE-19 cells (Homo sapiens, UniProt P21964); conditions: protein COMT Catechol O-methyltransferase (P21964)
Chain of UniProt P21964 (P21964 whole entry): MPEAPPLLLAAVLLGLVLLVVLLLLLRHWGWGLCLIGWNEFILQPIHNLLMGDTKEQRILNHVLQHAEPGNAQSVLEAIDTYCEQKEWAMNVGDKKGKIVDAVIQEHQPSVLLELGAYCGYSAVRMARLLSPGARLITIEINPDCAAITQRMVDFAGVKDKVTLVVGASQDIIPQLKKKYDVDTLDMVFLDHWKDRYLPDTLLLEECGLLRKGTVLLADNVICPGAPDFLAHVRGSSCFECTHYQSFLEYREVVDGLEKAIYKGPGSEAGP

[19] = biological target: PF-7802-labelled proteins in ARPE-19 cells (Homo sapiens, UniProt P31946); conditions: protein YWHAB 14-3-3 protein beta/alpha (P31946); replicate R1
Chain of UniProt P31946 (P31946 whole entry): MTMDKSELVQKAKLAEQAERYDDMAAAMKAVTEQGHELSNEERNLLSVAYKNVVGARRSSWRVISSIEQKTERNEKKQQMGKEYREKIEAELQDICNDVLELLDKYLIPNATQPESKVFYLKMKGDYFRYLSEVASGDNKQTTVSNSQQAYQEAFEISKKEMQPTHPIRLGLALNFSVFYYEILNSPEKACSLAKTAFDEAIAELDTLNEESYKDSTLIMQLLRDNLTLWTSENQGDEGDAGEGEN

[20] = biological target: PF-7802-labelled proteins in ARPE-19 cells (Homo sapiens, UniProt P36542); conditions: protein ATP5C1 ATP synthase subunit gamma, mitochondrial (P36542)
[21] = biological target: PF-7802-labelled proteins in ARPE-19 cells (Homo sapiens, UniProt P47985); conditions: UQCRFS1 Cytochrome b-c1 complex subunit Rieske, mitochondrial (P47985)
Chain of UniProt P47985 (P47985 whole entry): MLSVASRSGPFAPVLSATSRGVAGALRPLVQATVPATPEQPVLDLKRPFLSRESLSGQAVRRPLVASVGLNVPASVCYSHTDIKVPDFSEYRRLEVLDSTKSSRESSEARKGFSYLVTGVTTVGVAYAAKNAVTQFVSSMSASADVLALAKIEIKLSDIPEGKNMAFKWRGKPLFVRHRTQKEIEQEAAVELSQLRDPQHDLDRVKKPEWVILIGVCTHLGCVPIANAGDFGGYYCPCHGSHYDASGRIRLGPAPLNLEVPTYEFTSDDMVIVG

[22] = biological target: PF-7802-labelled proteins in ARPE-19 cells (Homo sapiens, UniProt Q04837); conditions: SSBP1 Single-stranded DNA-binding protein, mitochondrial (Q04837)

Chain of UniProt P07355 (P07355 whole entry): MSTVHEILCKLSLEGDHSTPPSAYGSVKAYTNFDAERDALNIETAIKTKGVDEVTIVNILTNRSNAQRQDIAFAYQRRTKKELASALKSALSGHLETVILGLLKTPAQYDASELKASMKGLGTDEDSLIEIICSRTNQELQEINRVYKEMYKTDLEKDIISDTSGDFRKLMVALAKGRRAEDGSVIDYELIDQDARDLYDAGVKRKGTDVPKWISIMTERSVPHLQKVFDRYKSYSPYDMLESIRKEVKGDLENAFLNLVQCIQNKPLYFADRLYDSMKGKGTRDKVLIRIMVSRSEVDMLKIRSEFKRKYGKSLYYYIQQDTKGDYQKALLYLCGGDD
Chain of UniProt P07437 (P07437 whole entry): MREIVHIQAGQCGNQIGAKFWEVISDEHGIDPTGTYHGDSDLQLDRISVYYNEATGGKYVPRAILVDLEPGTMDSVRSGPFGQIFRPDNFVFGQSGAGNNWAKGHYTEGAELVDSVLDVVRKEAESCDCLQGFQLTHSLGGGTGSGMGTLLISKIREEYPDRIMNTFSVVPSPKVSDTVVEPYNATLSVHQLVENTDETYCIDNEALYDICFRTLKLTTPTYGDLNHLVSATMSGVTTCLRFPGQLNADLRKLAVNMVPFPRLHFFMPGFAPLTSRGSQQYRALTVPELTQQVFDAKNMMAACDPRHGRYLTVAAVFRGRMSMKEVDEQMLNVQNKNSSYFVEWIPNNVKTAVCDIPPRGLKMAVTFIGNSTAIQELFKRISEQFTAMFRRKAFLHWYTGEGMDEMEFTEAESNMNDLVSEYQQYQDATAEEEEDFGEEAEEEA
Chain of UniProt P09651 (P09651 whole entry): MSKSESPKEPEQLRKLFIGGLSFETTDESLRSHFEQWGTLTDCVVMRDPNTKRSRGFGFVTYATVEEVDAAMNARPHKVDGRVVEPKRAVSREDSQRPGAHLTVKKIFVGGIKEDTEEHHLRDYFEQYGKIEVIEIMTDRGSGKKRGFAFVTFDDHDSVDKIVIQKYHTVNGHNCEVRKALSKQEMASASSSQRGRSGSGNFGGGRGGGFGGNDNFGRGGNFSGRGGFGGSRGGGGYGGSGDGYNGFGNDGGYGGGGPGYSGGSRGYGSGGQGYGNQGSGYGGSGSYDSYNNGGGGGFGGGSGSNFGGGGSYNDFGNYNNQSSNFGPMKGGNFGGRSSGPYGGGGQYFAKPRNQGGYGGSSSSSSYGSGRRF

Structure (SMILES): CNC1CCN(C(=O)C[C@@H](Cc2ccccc2)C(=O)N[C@@H](CSC)C(=O)N[C@@H](CC2CCCCC2)[C@@H](O)C(=O)OC(C)C)CC1 [CP-108671, reference compound]
- SILAC ratio (DMSO/CP-108671) ([1]; P05556 ITGB1 Integrin beta-1): 0.89
- Median SILAC Ratio (Heavy/Light) ([1]; protein ITGB1 Integrin beta-1 (P05556), one column per replicate): 1.128
- SILAC ratio (DMSO/CP-108671) ([2]; P07355 ANXA2 Annexin A2): 0.82
- Median SILAC Ratio (Heavy/Light) ([2]; protein ANXA2 Annexin A2 (P07355)): 1.239 and 1.115
- SILAC ratio (DMSO/CP-108671) ([3]; P07437 TUBB Tubulin beta chain): 0.42
- Median SILAC Ratio (Heavy/Light) ([3]; TUBB Tubulin beta chain (P07437)): 2.354 and 1.333
- SILAC ratio (DMSO/CP-108671) ([4]; P09651 HNRNPA1 Heterogeneous nuclear ribonucleoprotein A1): 0.88
- Median SILAC Ratio (Heavy/Light) ([4]; protein HNRNPA1 Heterogeneous nuclear ribonucleoprotein A1 (P09651), one column per replicate): 1.142 and 0.9281
- Median SILAC Ratio (Heavy/Light) [5]: 0.367
- Median SILAC Ratio (Heavy/Light) [6]: 0.6581
- Median SILAC Ratio (Heavy/Light) [7]: 1.663
- Median SILAC Ratio (Heavy/Light) [8]: 0.6002
- Median SILAC Ratio (Heavy/Light) [9]: 2.139
- SILAC ratio (DMSO/CP-108671) ([10]; Q5QNW6 HIST2H2BF Histone H2B type 2-F): 0.96
- Median SILAC Ratio (Heavy/Light) ([10]; protein HIST2H2BF Histone H2B type 2-F (Q5QNW6), one column per replicate): 1.044 and 1.132
- Median SILAC Ratio (Heavy/Light) [11]: 1.177
- Median SILAC Ratio (Heavy/Light) [12]: 2.256
- SILAC ratio (DMSO/CP-108671) ([13]; Q9UHD8 SEPT9 Septin-9): 0.67
- Median SILAC Ratio (Heavy/Light) ([13]; SEPT9 Septin-9 (Q9UHD8)): 1.4989
- SILAC ratio (DMSO/CP-108671) ([14]; P10319 HLA-B HLA class I histocompatibility antigen, B-58 alpha chain): 0.79
- SILAC ratio (DMSO/CP-108671) ([14]; P18464 HLA-B HLA class I histocompatibility antigen, B-51 alpha chain): 0.79
- SILAC ratio (DMSO/CP-108671) ([14]; P18465 HLA-B HLA class I histocompatibility antigen, B-57 alpha chain): 0.79
- SILAC ratio (DMSO/CP-108671) ([14]; P30484 HLA-B HLA class I histocompatibility antigen, B-46 alpha chain): 0.79
- SILAC ratio (DMSO/CP-108671) ([14]; P30492 HLA-B HLA class I histocompatibility antigen, B-54 alpha chain): 0.79
- SILAC ratio (DMSO/CP-108671) ([14]; P30504 HLA-C HLA class I histocompatibility antigen, Cw-4 alpha chain): 0.79
- SILAC ratio (DMSO/CP-108671) ([14]; P30510 HLA-C HLA class I histocompatibility antigen, Cw-14 alpha chain): 0.79
- SILAC ratio (DMSO/CP-108671) ([14]; P30685 HLA-B HLA class I histocompatibility antigen, B-35 alpha chain): 0.79
- Median SILAC Ratio (Heavy/Light) ([14]; UBBP4 Protein UBBP4 (J3QRK5)): 1.414 and 1.581
- Median SILAC Ratio (Heavy/Light) ([14]; Uncharacterized protein (D6R9H1)): 1.392
- Median SILAC Ratio (Heavy/Light) ([14]; Uncharacterized protein (J3QS99)): 1.406
- Median SILAC Ratio (Heavy/Light) ([14]; protein HLA-A HLA class I histocompatibility antigen, A-2 alpha chain (P01892), one column per replicate): 1.404
- Median SILAC Ratio (Heavy/Light) ([14]; protein HLA-B HLA class I histocompatibility antigen, B-8 alpha chain (P30460), one column per replicate): 1.249
- Median SILAC Ratio (Heavy/Light) ([14]; protein HLA-B HLA class I histocompatibility antigen, B-14 alpha chain (P30462), one column per replicate): 1.249
- Median SILAC Ratio (Heavy/Light) ([14]; protein HLA-B HLA class I histocompatibility antigen, B-35 alpha chain (P30685), one column per replicate): 1.264
- Median SILAC Ratio (Heavy/Light) ([14]; protein HLA-B HLA class I histocompatibility antigen, B-37 alpha chain (P18463), one column per replicate): 1.249
- Median SILAC Ratio (Heavy/Light) ([14]; protein HLA-B HLA class I histocompatibility antigen, B-38 alpha chain (Q95365), one column per replicate): 1.249
- Median SILAC Ratio (Heavy/Light) ([14]; protein HLA-B HLA class I histocompatibility antigen, B-46 alpha chain (P30484), one column per replicate): 1.264
- Median SILAC Ratio (Heavy/Light) ([14]; protein HLA-B HLA class I histocompatibility antigen, B-51 alpha chain (P18464), one column per replicate): 1.264
- Median SILAC Ratio (Heavy/Light) ([14]; protein HLA-B HLA class I histocompatibility antigen, B-54 alpha chain (P30492), one column per replicate): 1.264
- Median SILAC Ratio (Heavy/Light) ([14]; protein HLA-B HLA class I histocompatibility antigen, B-57 alpha chain (P18465), one column per replicate): 1.264
- Median SILAC Ratio (Heavy/Light) ([14]; protein HLA-B HLA class I histocompatibility antigen, B-58 alpha chain (P10319), one column per replicate): 1.264
- Median SILAC Ratio (Heavy/Light) ([14]; protein HLA-B HLA class I histocompatibility antigen, B-59 alpha chain (Q29940), one column per replicate): 1.264
- Median SILAC Ratio (Heavy/Light) ([14]; protein HLA-B HLA class I histocompatibility antigen, B-67 alpha chain (Q29836), one column per replicate): 1.249
- Median SILAC Ratio (Heavy/Light) ([14]; protein HLA-B HLA class I histocompatibility antigen, B-82 alpha chain (Q29718), one column per replicate): 1.249
- Median SILAC Ratio (Heavy/Light) ([14]; protein HLA-C HLA class I histocompatibility antigen, Cw-4 alpha chain (P30504), one column per replicate): 1.264
- Median SILAC Ratio (Heavy/Light) ([14]; protein HLA-C HLA class I histocompatibility antigen, Cw-14 alpha chain (F8VZB9), one column per replicate): 1.094
- Median SILAC Ratio (Heavy/Light) ([14]; protein HLA-C HLA class I histocompatibility antigen, Cw-14 alpha chain (P30510), one column per replicate): 1.264
- Median SILAC Ratio (Heavy/Light) ([14]; protein HLA-C HLA class I histocompatibility antigen, Cw-17 alpha chain (Q95604), one column per replicate): 1.404
- Median SILAC Ratio (Heavy/Light) ([14]; protein HLA-C HLA class I histocompatibility antigen, Cw-18 alpha chain (Q29865), one column per replicate): 1.179
- Median SILAC Ratio (Heavy/Light) ([14]; protein LOC440131 Similar to bA90M5.1 (Novel protein) (Q5TAE0), replicates in separate columns): 0.5915

Structure (SMILES): Cc1cc([C@H]2C[C@H]3[C@@H](C)SC(N)=N[C@@]3(c3ccc(F)cc3F)CO2)on1 [PF-9283]
- Median SILAC Ratio (Heavy/Light) [15]: 0.9569
- Median SILAC Ratio (Heavy/Light) [16]: 1.454 and 1.047 and 0.8125
- Median SILAC Ratio (Heavy/Light) [17]: 1.087
- Median SILAC Ratio (Heavy/Light) [18]: 0.6078 and 0.8309
- Median SILAC Ratio (Heavy/Light) [19]: 1.462
- Median SILAC Ratio (Heavy/Light) [20]: 1.273
- Median SILAC Ratio (Heavy/Light) [21]: 0.7276
- Median SILAC Ratio (Heavy/Light) [22]: 0.8749

Several values for one entry are separate records, joined by “and”; a condition that tells them apart may be missing. Identical values can stand only once. Like-named read-outs stand apart in the source and are kept apart here.
